# The whole screen tested about 45,000 compounds, of which about 200 (0.44%) were called active. Roughly 7% stayed inconclusive and do not appear here. Calls come from the whole dose curve; as a rule, active = well fitted activation curve with a large enough effect; inconclusive = small, poorly fitted or top-dose-only effect; inactive = no such curve, though single readings can be large or run the other way. The list shows a part of the results.
# Assay: qHTS of TDP-43 Inhibitors: NCGC Sytravon Library Screen; note: nearly all actives have a fitted effect of over 55% in size; for growth rescue (activation): 0% is about no effect
# Details: yeast TDP-43 toxicity rescue, BacTiter-Glo growth, 24 h; series mostly up to 46.1 µM; growth rescue (activation): at the top concentration
# In short: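 TDP-43-expressing yeast, pregrown in raffinose, seeded at OD600 0.02 in galactose medium with compound for 24 hr at 30 deg C. Growth read by BacTiter-Glo luminescence, so rescue of toxicity appears as activation.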
# Potency is the fitted concentration of half-maximal effect.
Compound,growth rescue (activation),Potency
CCOC(=O)CSc1n[nH]c(NS(=O)(=O)c2ccccc2C(F)(F)F)n1,inactive: -14.3%,–
COc1cc(C2NC(=O)CS2)cc(OC)c1OC (stereo not drawn),inactive: 4.43%,–
Cc1cc(C)n2nc(C(=O)Nc3ccc(S(=O)(=O)N4CCCC4)cc3)nc2n1,inactive: 29.9%,–
COCCN(C(=S)Nc1cccc(OC)c1)C1CCN(C(C)C)CC1,inactive: -1.07%,–
Cc1cc(C(=O)CN2C(=O)NC(C)(c3cc(F)ccc3F)C2=O)c(C)n1C1CC1 (stereo not drawn),inactive: -28%,–
COC(=O)c1cc2ccsc2n1CC(=O)N(C)C1CCCCC1,inactive: 9.09%,–
COCCCNC(=O)CN(CCc1ccccc1)S(=O)(=O)c1ccccc1,inactive: -2.31%,–
CCOCCCNCc1c(Cl)cccc1Cl,inactive: -3.94%,–
CCNCc1cc(Cl)c(OCc2ccccc2)c(OCC)c1,inactive: -3.6%,–
Cc1ccc2c(COC(=O)c3ccccc3OC(F)F)cc(=O)oc2c1,inactive: 1.74%,–
Cc1ccc(S(=O)(=O)NCC(=O)N/N=C/c2ccccc2O)cc1,inactive: -13.3%,–
O=C(Nc1cccc(NC(=O)c2cccs2)c1)c1ccc(Br)cc1,inactive: 12.6%,–
Cc1cccc(S(=O)(=O)Nc2ccc3c(c2)OCCO3)c1,inactive: 6.79%,–
COc1ccc(NC(=O)CC2CC3CCC2C3)cn1 (stereo not drawn),inactive: 18.4%,–
CCCC(=O)C1=C(O)C(C(=O)OC)C(C)(C)CC1=Nc1ccc(OC)cc1 (stereo not drawn),inactive: 8.48%,–
O=C(Nc1ccc2[nH]c(=O)[nH]c2c1)c1cc(F)c(F)cc1Cl,inactive: -1.47%,–
CSc1nc2ccccc2n1CC(=O)Nc1ccccc1,inactive: 7.05%,–
COC(=O)CC1=C(C(=O)OC)C(c2ccc3c(c2)OCO3)C(C#N)=C(N)O1 (stereo not drawn),inactive: 1.6%,–
NC(=O)C1Cc2ccccc2CN1C(=O)c1cccc(Oc2ccccc2)c1 (stereo not drawn),inactive: 16.5%,–
O=C(CCNS(=O)(=O)c1cccc2nonc12)NC1CCCCC1,inactive: 4.69%,–
CCN(CC(=O)N1CCC(C(N)=O)CC1)S(=O)(=O)c1cc(Cl)ccc1Cl,inactive: -2.24%,–
Cc1[nH]n(-c2ccc([N+](=O)[O-])cc2)c(=O)c1C=NCCc1c(C)[nH]c2ccccc12,inactive: -14.6%,–

Compound,growth rescue (activation),Potency
CN(CC(=O)Nc1ccc(S(=O)(=O)N2CCCC2)cc1)Cc1cccc(Cl)c1Cl,inactive: -6.22%,–
COc1cc(OC)c(S(=O)(=O)Nc2ccc(C(=O)N3CCCC3)cc2)cc1NC(C)=O,inactive: -6.19%,–
O=C(CN1C(=O)NC2(CCCCCC2)C1=O)NCc1ccc(F)cc1,inactive: 4.65%,–
CC1CCN(c2ccccc2NC(=O)c2cc3ccccc3o2)CC1,inactive: 15.6%,–
Cc1ccc(-c2csc(NC(=O)/C=C/c3ccco3)c2C(=O)O)cc1,inactive: -13%,–
Cc1ccc(C(=O)c2ccccc2C(=O)OCC(=O)NCC2CCCO2)cc1 (stereo not drawn),inactive: 23.4%,–
O=C(CNC(=O)/C(=C/c1ccccc1)NC(=O)c1ccc(Br)cc1)OCc1ccccc1,inactive: 9.58%,–
CCOc1ccc(S(=O)(=O)N2CCC(C(=O)Nc3cccc(NC(C)=O)c3)CC2)cc1,inactive: -14.9%,–
COc1ccc(N2CC(C(=O)N/N=C/c3ccc(C)cc3)CC2=O)cc1 (stereo not drawn),inactive: 20.8%,–
OC(c1ccccc1)(c1ccccc1)C1CCN(C(=S)NC2CCCC2)CC1,inactive: 14.3%,–
Cc1nc2ccccc2n1CCN1CCOCC1,inactive: 3.64%,–
COc1ccc(Nc2nc3c([nH]2)c(=O)[nH]c(=O)n3C)cc1,inactive: 11.6%,–
Cc1nc([N+](=O)[O-])c(Br)n1CC(=O)c1cccc([N+](=O)[O-])c1,inactive: 4.64%,–
COc1cccc(-c2cc(NC=O)c3ncc(-c4ccc(OC)c(OC)c4)n3c2)c1,inactive: 29.3%,–
Cc1n[nH]c(=O)nc1N/N=C/c1ccc(O)c([N+](=O)[O-])c1,inactive: -15.9%,–
FC(F)(F)c1cccc(-c2cc3nc(NCCOc4ccccc4)ccn3n2)c1,inactive: 14%,–
CCOC(=O)c1sc2nc(C)nc(NC3CCC(O)CC3)c2c1C (stereo not drawn),inactive: -6.69%,–
O=CN1CCN(C(=O)c2ccc(-c3nc4ccccc4s3)s2)CC1,inactive: 4.3%,–
O=C(N/N=C/c1ccc(OC(=O)c2cccc(Br)c2)cc1)c1cccnc1,inactive: -11.9%,–
O/N=C/c1ccc(OCc2ccccc2)c(Br)c1,–,active: 11.2 µM
CC(=O)c1c(N2CCN(c3ccc(F)cc3)CC2)nc(=S)n(Cc2ccccc2)c1C,inactive: -16.1%,–
Cc1cccc(OCC(=O)NNS(=O)(=O)c2ccccc2F)c1,inactive: 0.283%,–

Compound,growth rescue (activation),Potency
Nn1cnnc1N/N=C/c1cccc(Cl)c1Cl,inactive: 7.13%,–
Cc1ccc([N+](=O)[O-])cc1-c1ccc(/C=C(\C#N)c2[nH]nc(N)c2C#N)o1,inactive: 16.4%,–
O=C(CNC(=O)c1cccs1)OCc1c(F)cccc1Cl,inactive: 27.8%,–
C=CCOc1ccc(C2NC(=S)NC(c3ccccc3)=C2C(C)=O)cc1OC (stereo not drawn),inactive: 10.5%,–
Cc1ccccc1C(=O)N1CCc2cc(-c3csc(NC(=O)CN4CCCC4)n3)ccc21,inactive: 13.5%,–
C/C(=N\NC(=O)c1ccc(O)cc1)c1ccc2c(c1)Nc1ccccc1S2,inactive: 19.3%,–
CCc1nnc(NC(=O)CSc2nnc(CNC(=O)c3ccccc3F)n2C)s1,inactive: -1.86%,–
CCn1c(=O)n(CC(=O)Nc2ccc(F)cc2)c(=O)c2ccccc21,inactive: -8.51%,–
O=C(COC(=O)COc1ccc(Br)cc1)NCC1CCCO1 (stereo not drawn),inactive: -18.1%,–
CC(C)(C)c1ccc(C(=O)NCCC(=O)Nc2ccc3c(c2)OCCO3)cc1,inactive: 27.1%,–
CCCCCCCCc1nnc(N)s1,inactive: 26.7%,–
S=C(NCc1ccco1)Nc1ccccn1,inactive: 13.8%,–
CCc1nc2c(OCCn3cccc3)cccn2c1N(C)C(=O)C1CC1,inactive: -6.49%,–
O=C(Cn1nnc(-c2ccccc2)n1)N/N=C/c1ccco1,inactive: 4.2%,–
CCCNC(=O)C1(C)CCN(C(=O)c2ccc3ccccc3c2)C1 (stereo not drawn),inactive: 1.98%,–
CCN(CC)C(=O)c1sc2nc(-c3ccccn3)[nH]c(=O)c2c1C,inactive: 3.8%,–
Cc1nnc(Nc2ccc(O)cc2)[nH]c1=O,inactive: 1.88%,–
Cc1ccc(NC(=O)CN(C)C(=O)c2cc3ccccc3o2)cc1,inactive: -5.14%,–
Cc1cc(-c2n[nH]c(=S)n2/N=C/c2ccc(C)s2)n[nH]1,inactive: 20.7%,–
COc1ccc(CCNC2CC(=O)N(CCc3ccc(OC)c(OC)c3)C2=O)cc1 (stereo not drawn),inactive: -9.1%,–
COc1ccccc1/C=C/C=C1\Oc2c(ccc(O)c2CN2CCN(CCO)CC2)C1=O,inactive: -4.05%,–
CC(=O)c1ccc(N2CCN(c3ncccn3)CC2)cc1,inactive: 20.6%,–

Compound,growth rescue (activation),Potency
Nc1cc(=O)[nH]c(SCC(=O)Nc2cccc(S(=O)(=O)N3CCCCC3)c2)n1,inactive: -1.76%,–
CCC(=O)N1CCC1(C)C(=O)NCc1ccc(SC)cc1 (stereo not drawn),inactive: -7.69%,–
COc1ccc(CN(C)c2ncnc(N)n2)cc1,inactive: 12.6%,–
CCCCn1c(Cn2nc(C(=O)O)c3ccccc3c2=O)nc2cc(S(N)(=O)=O)ccc21,inactive: -10.1%,–
Cc1ccc(Cn2c(SC(C)C(N)=O)nc3ccccc3c2=O)cc1 (stereo not drawn),inactive: 20.8%,–
COCC(C)n1c(C)cc(C(=O)COC(=O)c2nn(C)c(=O)c3ccccc23)c1C (stereo not drawn),inactive: 18.6%,–
CC[C@H](C)[C@H](NC(N)=O)C(=O)Nc1ccc(C)cc1,inactive: 12.9%,–
COc1cc(C)c(NC(=O)C(=S)NCCc2ccccc2)cc1C,inactive: 5.83%,–
Cc1nc2ncccn2c1-c1csc(Nc2ccc(O)cc2)n1,inactive: 7.87%,–
COCCNC(=O)Cn1cnc2c(cnn2-c2ccc(C)cc2)c1=O,inactive: -0.568%,–
CC(C)C(NC(=O)c1ccc(C(C)(C)C)cc1)C(=O)OCC(=O)NC(=O)Cc1ccccc1 (stereo not drawn),inactive: -0.721%,–
CC(NC(=O)COC(=O)c1cc(=O)c2ccccc2o1)c1ccccc1 (stereo not drawn),inactive: -2.66%,–
O=C(O)CCCCCNC(=O)/C=C/c1ccco1,inactive: -0.107%,–
Cc1cccc(N(CC(=O)NC(C)(C)C)C(=O)CNC(=O)c2cccs2)c1,inactive: 9.91%,–
CN(C)CCCN(CCCNC(=O)/C=N/O)Cc1ccccc1,inactive: 11.4%,–
COc1ccc(F)cc1S(=O)(=O)n1nc(C)cc1C,inactive: 10.3%,–
CCN(CC)CCN1C(=O)C2C(C(=O)Nc3ccc(Br)cc3)C3C=CC2(O3)C1C(=O)NC1CCCCC1 (stereo not drawn),inactive: 5.82%,–
CC1(NC(=S)NCCO)CCS(=O)(=O)C1 (stereo not drawn),inactive: 8.8%,–
Cn1c(CNC(=O)c2ccc3c(c2)OCO3)nnc1SCC(=O)Nc1ccccc1F,inactive: 15.2%,–
CCOC(=O)C1CCN(C(=O)C2COc3ccccc3O2)CC1 (stereo not drawn),inactive: 14.5%,–
CC1(C)NC(=O)N(CC(=O)OCC(=O)Nc2sccc2C#N)C1=O,inactive: 13.6%,–
CC(C)(C)C1CCc2c(sc(N)c2C(N)=O)C1 (stereo not drawn),inactive: 32.9%,–

Compound,growth rescue (activation),Potency
CCN(CC)S(=O)(=O)c1cccc(NC(=O)COC(=O)c2cccs2)c1,inactive: 8.75%,–
COc1ccccc1C(=O)N/C(=C\c1ccccc1)C(=O)NCc1ccco1,inactive: 3.29%,–
COc1ccc(OC)c(CC(=O)Nc2ccc3c(c2)c(=O)n(C)n3Cc2cccc(C(F)(F)F)c2)c1,inactive: -7.94%,–
COc1cc(NC(=O)CCc2ccccc2)c(C(=O)O)cc1OC,inactive: 4.79%,–
Cc1ccccc1OCC(O)Cn1c(=N)n(Cc2ccccc2)c2ccccc21 (stereo not drawn),inactive: 9.57%,–
C/C(N)=C(/C#N)C(=O)COC(=O)C1CSC2(c3ccc(F)cc3)CCC(=O)N12 (stereo not drawn),inactive: -7.8%,–
COc1ccc2c(CC(=O)NNC(=O)c3ccccc3F)coc2c1,inactive: -8.66%,–
Cc1ccc(Sc2ncccc2C(=O)O)cc1,inactive: 14.1%,–
CC1(C(=O)NS(=O)(=O)c2cccc(C#N)c2)CCN1C(=O)c1cccc2ccccc12 (stereo not drawn),inactive: 1.1%,–
N#CCCn1cc(C(=O)Nc2ccc([N+](=O)[O-])cc2)c(-c2cccs2)n1,inactive: -15.8%,–
COc1ccc(-n2nc(C(=O)NCC(=O)NCCCN3CCOCC3)c3ccccc3c2=O)cc1,inactive: 9.65%,–
O=C1C2C(c3ccccc3)(C(=O)N1c1ccc(Cl)cc1)C2(c1ccccc1)c1ccccc1 (stereo not drawn),inactive: 11.3%,–
CCOC(=O)CN(c1ccccc1)S(=O)(=O)c1ccc(F)cc1,inactive: 26.2%,–
Cc1ccccc1-n1c(SCC(=O)Nc2ccc(Cl)cc2Cl)nc(O)cc1=O,inactive: 24.5%,–
Cc1ccc(S(=O)(=O)N2CCOCC2)cc1NC(=O)CN1CCC(Cc2ccccc2)CC1,inactive: -6.52%,–
CCNc1oc(COc2cccc(C)c2)nc1C#N,inactive: 28.3%,–
COCC(C)n1c(-c2ccc3c(c2)NC(=O)CO3)csc1=Nc1ccc(OC(F)F)cc1 (stereo not drawn),inactive: 10.4%,–
COc1ccc(C2N(C(=O)CN3CCCC3)CCCN2S(=O)(=O)c2ccccc2)cc1 (stereo not drawn),inactive: 16%,–
O=C(c1ccc([N+](=O)[O-])cc1)n1nc(-c2ccccc2)nc1NCc1ccc(F)cc1,inactive: 5.9%,–
Cc1ccc(NS(=O)(=O)c2cc3c4c(cccc4c2)C(=O)NC3=O)cc1C,inactive: 26.6%,–
